# Assay results published in the supplement of paper PMC8728848.
# This is one part of the list.
# B1: FimD (Bordetella pertussis) (protein)
# chain: MPARVISFCGAALAVWAGLAVQPAMAVDPPVDCGRALGLHFWSSASLISDQTPDGTLIGKPVVGRSLLSKSCKVPDDIKEDLSDNHDGEPVDIVLELGSNYKIRPQSYGHPGIVVDLPFGSTEETGIAIYIDFGSSPMQKVGERQWLYPQKGEVLFDVLTINGDNAEVRYQAIKVGPLKRPRKLVLSQFPNLFTYKWVFMRGTSQERVLAQGTIDTDVATSTIDLKTCRYTSQTVSLPIIQRSALTGVGTTLGMTDFQMPFWCYGWPKVSVYMSATKTQTGVDGVALPATGQAAGMASGVGVQLINGKTQQPVKLGLQGKIALPEAQQTESATFSLPMKAQYYQTSTSTSAGKLSVTYAVTLNYD
# What was measured:
# Test in all cases: glycan array binding signal (z-score within array); higher = stronger binding
# Settings in all cases: glycan notation: IUPAC condensed, linker removed
# [1] = target: Gal(b1-3)GalNAc(b1-3)Gal(a1-4)Gal(b1-4)Glc
# Outline: (§1)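 The binding signal is a Z-score computed within each array. Data were drawn from 3228 arrays in the Consortium for Functional Glycomics database, restricted to those with a known protein sequence. Scores were averaged over arrays of the same protein sequence at different concentrations or buffers, and over linkers, and negative values can be taken as non-binding.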
# [2] = target: Gal(b1-3)GalNAc(b1-4)Gal(b1-4)Glc
# Outline: as §1
# [3] = target: Gal(b1-3)GalNAc(b1-4)[Neu5Ac(a2-3)]Gal(b1-4)Glc
# Outline: as §1
# Gal(b1-3)GlcNAc = target: Gal(b1-3)GlcNAc
# Outline: as §1
# [4] = target: Gal(b1-3)GlcNAc(a1-3)Gal(b1-4)GlcNAc
# Outline: as §1
# [5] = target: Gal(b1-3)GlcNAc(a1-6)Gal(b1-4)GlcNAc
# Outline: as §1
# Gal(b1-3)GlcNAc(b1-2)Man = target: Gal(b1-3)GlcNAc(b1-2)Man
# Outline: as §1
# [6] = target: Gal(b1-3)GlcNAc(b1-2)Man(a1-3)[Gal(b1-3)GlcNAc(b1-2)Man(a1-6)]Man(b1-4)GlcNAc(b1-4)GlcNAc
# Outline: as §1
# [7] = target: Gal(b1-3)GlcNAc(b1-2)Man(a1-3)[Gal(b1-3)GlcNAc(b1-2)Man(a1-6)]Man(b1-4)GlcNAc(b1-4)[Fuc(a1-6)]GlcNAc
# Outline: as §1
# [8] = target: Gal(b1-3)GlcNAc(b1-2)Man(a1-3)[GlcNAc(b1-4)][Gal(b1-3)GlcNAc(b1-2)Man(a1-6)]Man(b1-4)GlcNAc(b1-4)GlcNAc
# Outline: as §1
# [9] = target: Gal(b1-3)GlcNAc(b1-2)[Gal(b1-3)GlcNAc(b1-6)]Man(a1-6)[Gal(b1-3)GlcNAc(b1-2)Man(a1-3)]Man(b1-4)GlcNAc(b1-4)GlcNAc
# Outline: as §1
# [10] = target: Gal(b1-3)GlcNAc(b1-3)Gal(b1-3)GlcNAc
# Outline: as §1
# [11] = target: Gal(b1-3)GlcNAc(b1-3)Gal(b1-4)Glc
# Outline: as §1
# [12] = target: Gal(b1-3)GlcNAc(b1-3)Gal(b1-4)GlcNAc
# Outline: as §1
# [13] = target: Gal(b1-3)GlcNAc(b1-3)Gal(b1-4)GlcNAc(b1-2)Man(a1-3)[Gal(b1-3)GlcNAc(b1-3)Gal(b1-4)GlcNAc(b1-2)Man(a1-6)]Man(b1-4)GlcNAc(b1-4)GlcNAc
# Outline: as §1
# [14] = target: Gal(b1-3)GlcNAc(b1-3)Gal(b1-4)GlcNAc(b1-2)[Gal(b1-3)GlcNAc(b1-3)Gal(b1-4)GlcNAc(b1-6)]Man(a1-6)[Gal(b1-3)GlcNAc(b1-3)Gal(b1-4)GlcNAc(b1-2)Man(a1-3)]Man(b1-4)GlcNAc(b1-4)[Fuc(a1-6)]GlcNAc
# Outline: as §1
# [15] = target: Gal(b1-3)GlcNAc(b1-3)Gal(b1-4)GlcNAc(b1-3)Gal(b1-4)GlcNAc(b1-2)[Gal(b1-3)GlcNAc(b1-3)Gal(b1-4)GlcNAc(b1-3)Gal(b1-4)GlcNAc(b1-6)]Man(a1-6)[Gal(b1-3)GlcNAc(b1-3)Gal(b1-4)GlcNAc(b1-3)Gal(b1-4)GlcNAc(b1-2)Man(a1-3)]Man(b1-4)GlcNAc(b1-4)[Fuc(a1-6)]GlcNAc
# Outline: as §1
# [16] = target: Gal(b1-3)GlcNAc(b1-3)Gal(b1-4)GlcNAc(b1-6)[Gal(b1-3)GlcNAc(b1-3)]Gal(b1-4)Glc
# Outline: as §1
# [17] = target: Gal(b1-3)GlcNAc(b1-3)Gal(b1-4)[Fuc(a1-3)]GlcNAc
# Outline: as §1
# [18] = target: Gal(b1-3)GlcNAc(b1-3)Gal(b1-4)[Fuc(a1-3)]GlcNAc(b1-6)[Gal(b1-3)GlcNAc(b1-3)]Gal(b1-4)Glc
# Outline: as §1
# [19] = target: Gal(b1-3)GlcNAc(b1-3)GalNAc
# Outline: as §1
# [20] = target: Gal(b1-3)GlcNAc(b1-6)Gal(b1-4)GlcNAc
# Outline: as §1
# [21] = target: Gal(b1-3)GlcNAc(b1-6)GalNAc
# Outline: as §1
# [22] = target: Gal(b1-3)GlcNAc(b1-6)[Gal(b1-3)]GalNAc
# Outline: as §1
# Gal(b1-3)GlcNAc6S = target: Gal(b1-3)GlcNAc6S
# Outline: as §1
# [23] = target: Gal(b1-3)[Fuc(a1-4)]GlcNAc
# Outline: as §1
# [24] = target: Gal(b1-3)[Fuc(a1-4)]GlcNAc(b1-2)Man
# Outline: as §1
# [25] = target: Gal(b1-3)[Fuc(a1-4)]GlcNAc(b1-2)Man(a1-3)[Gal(b1-3)[Fuc(a1-4)]GlcNAc(b1-2)Man(a1-6)]Man(b1-4)GlcNAc(b1-4)[Fuc(a1-6)]GlcNAc
# Outline: as §1
# [26] = target: Gal(b1-3)[Fuc(a1-4)]GlcNAc(b1-3)Gal(b1-3)[Fuc(a1-4)]GlcNAc
# Outline: as §1
# [27] = target: Gal(b1-3)[Fuc(a1-4)]GlcNAc(b1-3)Gal(b1-4)[Fuc(a1-3)]GlcNAc
# Outline: as §1
# [28] = target: Gal(b1-3)[Fuc(a1-4)]GlcNAc(b1-6)GalNAc
# Outline: as §1
# [29] = target: Gal(b1-3)[GlcNAc(b1-6)]GalNAc
# Outline: as §1
# [30] = target: Gal(b1-3)[Neu5Ac(a2-6)]GalNAc
# Outline: as §1
# [31] = target: Gal(b1-3)[Neu5Ac(a2-6)]GlcNAc(b1-4)Gal(b1-4)Glc
# Outline: as §1
# [32] = target: Gal(b1-3)[Neu5Ac(b2-6)]GalNAc
# Outline: as §1
# Gal(b1-4)Gal = target: Gal(b1-4)Gal
# Outline: as §1
# [33] = target: Gal(b1-4)GalNAc(a1-3)[Fuc(a1-2)]Gal(b1-4)GlcNAc
# Outline: as §1
# [34] = target: Gal(b1-4)GalNAc(b1-3)[Fuc(a1-2)]Gal(b1-4)GlcNAc
# Outline: as §1
binder,measurement,setting,value
B1,glycan array binding signal (z-score),[1],-0.115
same,glycan array binding signal (z-score),[2],0.279
same,glycan array binding signal (z-score),[3],-0.254
same,glycan array binding signal (z-score),Gal(b1-3)GlcNAc,0.06
same,glycan array binding signal (z-score),[4],-0.403
same,glycan array binding signal (z-score),[5],-0.163
same,glycan array binding signal (z-score),Gal(b1-3)GlcNAc(b1-2)Man,0.008
same,glycan array binding signal (z-score),[6],1.11
same,glycan array binding signal (z-score),[7],0.621
same,glycan array binding signal (z-score),[8],0.431
same,glycan array binding signal (z-score),[9],0.171
same,glycan array binding signal (z-score),[10],-0.326
same,glycan array binding signal (z-score),[11],-0.264
same,glycan array binding signal (z-score),[12],-0.443
same,glycan array binding signal (z-score),[13],-0.14
same,glycan array binding signal (z-score),[14],1.82
same,glycan array binding signal (z-score),[15],0.259
same,glycan array binding signal (z-score),[16],-0.313
same,glycan array binding signal (z-score),[17],-0.323
same,glycan array binding signal (z-score),[18],-0.585
same,glycan array binding signal (z-score),[19],-0.464
same,glycan array binding signal (z-score),[20],-0.202
same,glycan array binding signal (z-score),[21],-0.524
same,glycan array binding signal (z-score),[22],-0.165
same,glycan array binding signal (z-score),Gal(b1-3)GlcNAc6S,-0.022
same,glycan array binding signal (z-score),[23],-0.227
same,glycan array binding signal (z-score),[24],0.741
same,glycan array binding signal (z-score),[25],-0.112
same,glycan array binding signal (z-score),[26],-0.301
same,glycan array binding signal (z-score),[27],0.034
same,glycan array binding signal (z-score),[28],2.73
same,glycan array binding signal (z-score),[29],-0.015
same,glycan array binding signal (z-score),[30],-0.156
same,glycan array binding signal (z-score),[31],-0.518
same,glycan array binding signal (z-score),[32],-0.528
same,glycan array binding signal (z-score),Gal(b1-4)Gal,-0.083
same,glycan array binding signal (z-score),[33],-0.051
same,glycan array binding signal (z-score),[34],-0.493
